Experimental data: PubChem BioAssay AID588855 (National Center for Advancing Translational Sciences (NCATS), 2011)
The whole screen tested about 410,000 compounds, of which about 5,000 (1.2%) were called active. Inconclusive results, whose numbers are uncertain, are shown with a selection of clear calls. The call rests on the fitted dose curve; in most records, active means well fitted inhibition curve with a large enough effect; inconclusive means small, poorly fitted or top-dose-only effect; inactive means no such curve, though single readings can be large or run the other way. Potencies beside an inconclusive call are fits to weak or partial responses and may not hold up.

Assay: qHTS for Inhibitors of TGF-b; further: nearly all actives have a fitted effect of over 65% in size
Settings: HepG2 CAGA-GFP TGF-b/SMAD3 reporter, GFP fluorescence, 18 h, TGF-beta stimulated, 500 pg/mL final; series mostly up to 46.1 µM; activity, negative = inhibition: at the top concentration
In short: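 HEPG2 CAGA-GFP, 1000 cells/well; 2 h settle, 37 C; cpd via pin tool; TGF-b 500 pg/mL final; 18 h, 37 C; GFP imaging ex488/em500-530; %Activity normalised to -TGF-b and +DMSO controls; CRC fit, curve class.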
On the % scale 0 is the no-effect control and ±100 the full control effect; potency means the concentration at half of the fitted maximal effect; tags describe the fitted curve by direction and shape.

Q: With `C=CCNC(=S)N/N=C/c1ccc(-c2ccc(OC)cc2)o1` as the compound, how does the Potency read?
A: Its Potency is inconclusive: 10 µM [inhibitor, partial curve].

Q: For `CCOC(=O)c1c(NC(=O)C2c3ccccc3Oc3ccccc32)sc(C(=O)N(CC)CC)c1C`, which Potency is on record?
A: The Potency was inconclusive: 15.8 µM [inhibitor, single point].

Q: With `Nc1nc(=O)n(C2CCCO2)cc1Br` (stereo not drawn) as the compound, how does the Potency read?
A: Its Potency is inconclusive: 0.631 µM [inhibitor, partial curve, poor fit].

Q: With `CCN(CC)S(=O)(=O)c1ccc(NC(=O)c2cccnc2Cl)c(NC(=O)c2cccnc2Cl)c1` as the compound, how does the Potency read?
A: Its Potency is inconclusive: 20 µM [inhibitor, partial curve, poor fit].

Q: Which “activity, negative = inhibition” value does the source give for `COc1ccc(N2C(=O)NC(NC(=O)c3ccncc3)(C(F)(F)F)C2=O)cc1` (stereo not drawn) here?
A: Its value is inactive: 5.76%.

Q: With `COc1ccc(N(CC(=O)NC2CC3CCC2C3)S(=O)(=O)c2ccc(C)cc2)cc1Cl` (stereo not drawn) as the compound, how does the “activity, negative = inhibition” value read?
A: Its value is inactive: -3%.

Q: Which “activity, negative = inhibition” value does the source give for `CCCCn1c(Nc2ccc(OC)cc2)nc2ccccc21` here?
A: The value was inactive: -10.2%.

Q: With `CCC12C(=Nc3c(Cl)cccc31)C[C@@H]1CCN3C(=O)CCC[C@H]2[C@H]13` (stereo partly drawn) as the compound, how does the Potency read?
A: The Potency was “inactive”.

Q: Which Potency does the source give for `CCOc1ccc(Cl)cc1-c1cc(C(=O)NCc2ccccc2)[nH]n1` here?
A: Its Potency is inconclusive: 35.5 µM [inhibitor, single point].

Q: For `COc1ccc(-c2cn3c(C)c(C(=O)Nc4cc(C)cc(C)c4)sc3n2)cc1`, which “activity, negative = inhibition” value is on record?
A: Its value is inactive: 0.33%.

Q: For `CCc1cccc(NC(=O)CN(C)S(=O)(=O)c2ccc3[nH]c4c(c3c2)CCCC4)c1`, which Potency is on record?
A: Its Potency is inconclusive: 35.5 µM [inhibitor, single point].

Q: Which Potency does the source give for `CC(C)Oc1cc(F)ccc1-c1cc(C(=O)Nc2cccc(C(F)(F)F)c2)[nH]n1` here?
A: Its Potency is inconclusive: 35.5 µM [inhibitor, single point].

Q: With `OCCNc1nc2ccccc2nc1NCCO` as the compound, how does the “activity, negative = inhibition” value read?
A: Its value is inactive: 4.99%.

Q: With `CCN(CC)S(=O)(=O)c1ccc(N2CCN(C)CC2)c(NC(=O)Nc2ccccc2F)c1` as the compound, how does the Potency read?
A: Its Potency is inconclusive: 14.1 µM [inhibitor, partial curve, poor fit].

Q: Which Potency does the source give for `COc1cc(CCNC2=CC(=O)c3ncccc3C2=O)ccc1O` here?
A: The Potency was inconclusive: 3.16 µM [inhibitor, full curve, poor fit].

Q: Which Potency does the source give for `COc1ccc(NC(=O)C(=O)c2cn(CC(=O)N3CCCC3)c3ccccc23)cc1` here?
A: Its Potency is inconclusive: 3.98 µM [inhibitor, full curve].

Q: For `CC(C)(C)c1ccc(OCC(=O)NCCN2CCCC2)cc1`, which “activity, negative = inhibition” value is on record?
A: Its value is inactive: -13.6%.

Q: With `O=S(=O)(c1cc(F)ccc1F)N1CCN(c2ncccn2)CC1` as the compound, how does the “activity, negative = inhibition” value read?
A: Its value is inactive: -0.071%.

Q: For `CCCOC(=O)c1c(NC(=O)c2cc3ccccc3c(=O)o2)sc2c1CCC(C)C2` (stereo not drawn), which Potency is on record?
A: Its Potency is inconclusive: 35.5 µM [inhibitor, single point].

Q: With `CCOc1ccc(-n2nc3ccc(NC(=O)Cc4ccccc4)cc3n2)cc1` as the compound, how does the Potency read?
A: The Potency was inconclusive: 8.91 µM [inhibitor, partial curve, poor fit].

Q: Which Potency does the source give for `Cc1[nH][nH]c(=O)c1C(c1ccc(F)cc1)c1c(C)[nH][nH]c1=O` here?
A: The Potency was inconclusive: 15.8 µM [inhibitor, partial curve, poor fit].

Q: For `COc1ccc(N2CCN(C3CCN(S(=O)(=O)c4ccc(F)cc4)CC3)CC2)cc1`, which “activity, negative = inhibition” value is on record?
A: The value was inactive: 8.31%.

Q: For `COC(=O)c1sc2cccc(F)c2c1S(=O)(=O)N1CCN(c2cccc(C)c2)C(C)C1` (stereo not drawn), which “activity, negative = inhibition” value is on record?
A: The value was inactive: -0.178%.

Q: For `COc1ccc(CCNc2ncnc3c2nnn3C)cc1`, which Potency is on record?
A: Its Potency is inconclusive: 4.47 µM [inhibitor, full curve, poor fit].

Q: Which “activity, negative = inhibition” value does the source give for `O=C(NCC(c1ccco1)N1CCCCC1)c1ccc(OCc2ccccc2)cc1` (stereo not drawn) here?
A: Its value is inactive: 28.5%.

Q: With `CCOC(=O)C(CC)(CC)/C(C)=N/NC(=O)CC#N` as the compound, how does the “activity, negative = inhibition” value read?
A: Its value is inactive: 6.31%.

Q: With `N#CCC(=O)Nc1ccc(C(=O)OCc2ccccc2Oc2ccccc2)cc1` as the compound, how does the Potency read?
A: The Potency was inconclusive: 22.4 µM [inhibitor, single point].

Q: Which Potency does the source give for `CC(C)(C)c1ccc(C2CC2C(=O)N/N=C\c2cc3ccccc3nc2Cl)cc1` (stereo not drawn) here?
A: Its Potency is inconclusive: 25.1 µM [inhibitor, single point].

Q: Which “activity, negative = inhibition” value does the source give for `c1ccc(Cn2ncc3c(N4CCN(c5ccccc5)CC4)ncnc32)cc1` here?
A: Its value is inactive: -6.25%.

Q: Which Potency does the source give for `CCOC(=O)c1c(C)[nH]c(C)c1S(=O)(=O)N1CCC(C(=O)NCc2cccc(OC)c2)CC1` here?
A: Its Potency is inconclusive: 12.6 µM [inhibitor, partial curve].

Q: With `COc1ccc(S(=O)(=O)N2Cc3ccccc3CC2C(=O)Nc2ccc(C)cc2C)cc1OC` (stereo not drawn) as the compound, how does the “activity, negative = inhibition” value read?
A: The value was inactive: -29%.

Q: For `C/C(CCc1ccccc1)=N\NC(=S)NCCc1ccccc1`, which “activity, negative = inhibition” value is on record?
A: Its value is inactive: -20.2%.

Q: For `CCCC(=O)NC(c1ccc(OC)c(OC)c1)c1c(O)ccc2ccccc12` (stereo not drawn), which Potency is on record?
A: The Potency was inconclusive: 35.5 µM [inhibitor, single point].

Q: With `Cc1c(C(=O)N(C)C)sc2c1c(=O)n(-c1ccc(Cl)cc1)c(=O)n2CC(=O)C(C)(C)C` as the compound, how does the Potency read?
A: The Potency was inconclusive: 0.708 µM [inhibitor, partial curve, poor fit].

Q: Which Potency does the source give for `CCCCOc1ccc(Br)cc1/C(C)=N/NC1=NCCN1` here?
A: Its Potency is inconclusive: 7.94 µM [inhibitor, partial curve, poor fit].

Q: Which Potency does the source give for `O=C(Nc1ccc(Cl)cc1)c1cc2c(cc1O)[nH]c1ccccc12` here?
A: Its Potency is active: 6.31 µM.

Q: Which Potency does the source give for `CCS(=O)(=O)Nc1cccc(-c2ccc3nnc(-c4cccnc4)n3n2)c1` here?
A: Its Potency is inconclusive: 1.58 µM [inhibitor, partial curve, poor fit].

Q: For `Cc1ccc(NC(=O)Cn2nc(N3CCN(c4ccccc4)CC3)ccc2=O)cc1F`, which Potency is on record?
A: Its Potency is inconclusive: 35.5 µM [inhibitor, single point].

Q: Which Potency does the source give for `Cn1cc([C@@H]2C[C@H]3CN(Cc4cccc(Cl)c4)C(=O)[C@]34CCCN24)c(-c2ccccc2)n1` here?
A: Its Potency is inconclusive: 3.98 µM [inhibitor, single point].

Q: For `COc1ccc(-n2c(=O)c3sc4ccccc4c3n(Cc3ccccc3C)c2=O)cc1OC`, which “activity, negative = inhibition” value is on record?
A: Its value is inactive: -18.3%.

Q: Which Potency does the source give for `CC1CC(C)CN(C(=O)c2ccccc2Nc2ccc(SC(F)F)cc2)C1` (stereo not drawn) here?
A: Its Potency is inconclusive: 20 µM [inhibitor, single point].

Q: For `COc1ccc2sc(N(CCCN(C)C)C(=O)c3ccc(S(=O)(=O)N4CCCc5ccccc54)cc3)nc2c1`, which Potency is on record?
A: The Potency was active: 22.4 µM.

Q: Which Potency does the source give for `CCCOC(=O)c1ccc(Oc2cn[nH]c2-c2ccc(OC)cc2O)cc1` here?
A: Its Potency is inconclusive: 35.5 µM [inhibitor, single point].

Q: With `COc1ccc(OCc2ccc(-c3nc(C#N)c(N4CCCCC4)o3)o2)cc1` as the compound, how does the “activity, negative = inhibition” value read?
A: Its value is inactive: 1.49%.

Q: For `Cc1ccccc1OCC(=O)N1CCC(c2nc3ccccc3s2)CC1`, which Potency is on record?
A: The Potency was inconclusive: 11.2 µM [inhibitor, partial curve].

Q: For `CC(C)(C)c1ccc(OCc2ccc(C(=O)N/N=C/c3ccc([N+](=O)[O-])cc3)o2)cc1`, which “activity, negative = inhibition” value is on record?
A: Its value is inactive: -16.9%.

Q: Which “activity, negative = inhibition” value does the source give for `O=C(O)CSc1nnc(-c2cccc(S(=O)(=O)N3CCOCC3)c2)n1-c1ccc(F)cc1` here?
A: The value was inactive: 0.621%.

Q: With `O=C1CC(c2cccc(Br)c2)c2cc3c(cc2N1)CCC3` (stereo not drawn) as the compound, how does the Potency read?
A: Its Potency is inconclusive: 17.8 µM [inhibitor, partial curve, poor fit].

Q: With `COc1ccc(S(=O)(=O)Nc2cccc(N(C)S(C)(=O)=O)c2)cc1Br` as the compound, how does the Potency read?
A: Its Potency is inconclusive: 15.8 µM [inhibitor, single point].

Q: Which “activity, negative = inhibition” value does the source give for `COc1ccc(Cl)cc1NS(=O)(=O)c1cccc(C(=O)NCCCN2CCCC2=O)c1` here?
A: Its value is inactive: 6.94%.

Q: With `CCN(CC(=O)NC1CCCCCC1)S(=O)(=O)c1ccccc1` as the compound, how does the Potency read?
A: Its Potency is inconclusive: 0.501 µM [inhibitor, full curve, poor fit].

Q: For `CC(=O)Nc1ccc(OC(=O)c2ccco2)cc1`, which Potency is on record?
A: Its Potency is inconclusive: 2.82 µM [inhibitor, partial curve, poor fit].

Q: For `COc1ccc(-n2c(=S)[nH]c3cc(C(=O)Nc4ccccc4OC)ccc3c2=O)c(OC)c1`, which Potency is on record?
A: The Potency was inconclusive: 11.2 µM [inhibitor, single point].

Q: For `O=C(NCc1ccccn1)C1CCCN(S(=O)(=O)c2cc(Cl)ccc2Cl)C1` (stereo not drawn), which Potency is on record?
A: The Potency was inconclusive: 4.47 µM [inhibitor, partial curve, poor fit].

Q: For `Cn1c(=O)oc2cc(S(=O)(=O)NCCN3CCN(c4ccccc4)CC3)ccc21`, which “activity, negative = inhibition” value is on record?
A: Its value is inactive: -17.5%.

Q: Which Potency does the source give for `CCCCOc1ccc(C(=O)NCc2nnnn2-c2ccc(C)c(C)c2)cc1` here?
A: Its Potency is inconclusive: 14.1 µM [inhibitor, partial curve, poor fit].

Q: Which Potency does the source give for `COc1ccccc1NC(=O)CC1C(=O)NCCN1C(=O)Nc1ccc(Cl)c(Cl)c1` (stereo not drawn) here?
A: Its Potency is inconclusive: 15.8 µM [inhibitor, single point].

Q: With `COc1ccc(CNc2nc3ccccc3n2C)c(OC)c1` as the compound, how does the Potency read?
A: The Potency was inconclusive: 14.1 µM [inhibitor, partial curve, poor fit].

Q: Which Potency does the source give for `CCN1C(=O)c2ccccc2Sc2ccc(NC(=O)Nc3cccc([N+](=O)[O-])c3C)cc21` here?
A: Its Potency is inconclusive: 6.31 µM [inhibitor, single point].

Q: Which Potency does the source give for `CCC1=C(c2ccc(C)cc2)S(=O)(=O)N=C1N1CCC(C(=O)NCc2ccc(N(C)C)cc2)CC1` here?
A: Its Potency is inconclusive: 35.5 µM [inhibitor, single point].

Q: With `O=[N+]([O-])c1ccccc1CN1CCN(Cc2ccccn2)CC1` as the compound, how does the “activity, negative = inhibition” value read?
A: The value was inactive: 0%.

Q: With `COc1ccc(N(C(=O)c2ccc(C(C)(C)C)cc2)S(=O)(=O)c2ccc(Cl)cc2)cc1` as the compound, how does the “activity, negative = inhibition” value read?
A: Its value is inactive: -26.3%.

Q: For `CCN1CCC(O)(/C=C/c2ccc(C)cc2)C(C(=O)/C=C/c2ccc(C)cc2)C1` (stereo not drawn), which Potency is on record?
A: Its Potency is active: 11.2 µM.

Q: Which Potency does the source give for `CN(C(=S)Oc1ccc(C(=O)Nc2ccccc2)cc1)c1ccccc1` here?
A: The Potency was inconclusive: 22.4 µM [inhibitor, single point].

Q: With `O=C(NCCCN1CCN(c2cccc(Cl)c2)CC1)c1cnn(-c2ccc(F)cc2)c1-n1cccc1` as the compound, how does the Potency read?
A: The Potency was inconclusive: 25.1 µM [inhibitor, single point].

Q: Which Potency does the source give for `O=S(=O)(Nc1cc(Sc2cccc3cccnc23)c(O)c2ccccc12)c1ccc(F)cc1` here?
A: The Potency was active: 0.794 µM.

Q: With `CCOc1ccc(CNC(=O)C2=Cc3cccc(OC)c3OC2)cc1` as the compound, how does the “activity, negative = inhibition” value read?
A: Its value is inactive: -21.9%.

Q: With `COc1ccc(CCNC(=O)C2c3ccccc3C(=O)N2Cc2ccccc2)cc1OC` (stereo not drawn) as the compound, how does the Potency read?
A: The Potency was inconclusive: 3.55 µM [inhibitor, single point].
